Source: PubChem BioAssay AID686970 (National Center for Advancing Translational Sciences (NCATS), 2013)
In all, about 360,000 compounds went through this assay and about 6,000 (1.7%) were called active. Inconclusive results, whose numbers are uncertain, are shown with a selection of clear calls. Calls come from the whole dose curve; as a rule, active = well fitted cell-killing curve with a large enough effect; inconclusive = small, poorly fitted or top-dose-only effect, or effect the other way; inactive = flat fitted curve, though single readings scatter. No potency is given beside an inconclusive call; the fits are too rough.
Potency is the fitted concentration of half-maximal effect; tags give direction and shape of the fitted curve.

Test: qHTS for induction of synthetic lethality in tumor cells producing 2HG: qHTS for the HT-1080-NT fibrosarcoma cell line;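 note: NT is the 2HG producing partner of a matched IDH1 knockdown line; nearly all actives have a fitted effect of over 55% in size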;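 for activity, negative = less viability: 0% = DMSO-treated cells and -100% = media-only wells without cells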
Details: HT-1080-NT fibrosarcoma viability, CellTiter-Glo ATP luminescence, 48 h; activity, negative = less viability: at 46.1 µM (top of the series) unless noted
Outline: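 Read-out is CellTiter-Glo luminescence after 10 minutes at room temperature, following 48 hours' compound treatment of HT-1080-NT cells (750 cells/well, RPMI, 5% FBS, 37 degrees C).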
In the case of `COc1ccc(C)cc1S(=O)(=O)N1CCN(c2cccc(C(F)(F)F)c2)CC1`, the Potency is reported as “inactive”.
With `CCOC(=O)C1=C(C)OC(N)=C(C#N)C1C1CCCCC1` (stereo not given) the Potency was inconclusive [cytotoxic, single point].
With `Cc1c(Cl)cccc1Nc1nc(N)nc(CSc2ncccn2)n1` the Potency was inconclusive [cytotoxic, single point].
In the case of `CC(C)c1ccc(NC(=O)[C@@H](NC(=O)N2CC(=O)Nc3ccccc32)C(C)C)cc1`, the Potency is reported as inconclusive [cytotoxic, single point].
For `Cc1cc(C(=O)O)ccc1N=Cc1c(O)ccc2ccccc12`, the Potency was inconclusive [cytotoxic, single point].
For `O=C(Nc1cccc(Oc2ccccc2)c1)C1Cc2c(-c3ccccc3)ccnc2O1` (stereo not given), the Potency was “inactive”.
For `CC(=O)COC(=O)CCc1nc2ccccc2[nH]c1=O`, the Potency was “inactive”.
In the case of `CC(=O)N(C1=C(Cl)C(=O)c2ccccc2C1=O)C1CCCCC1`, the Potency is reported as active: 4.11 µM.
For `COc1cccc(CNc2nc3ccc(NC(C)=O)cc3s2)c1`, the Potency was “inactive”.
For `COc1ccccc1C1=NOC(COc2ccc3c(C)cc(=O)oc3c2)C1` (stereo not given), the Potency was active: 0.92 µM.
For `CCCCCCN1CC(C(=O)OCC)C(=O)C1=O` (stereo not given), the Potency was “inactive”.
For `Cc1cccc(C)c1OCC(=O)N/N=C/C=C/c1ccco1`, the Potency was inconclusive [cytotoxic, partial curve].
With `COc1ccc(-c2csc(NC(=S)NC(=O)/C=C/c3ccccc3)n2)cc1Br` the Potency was “inactive”.
In the case of `COc1ccc(NC(=O)C2Cc3c(-c4ccc5c(c4)OCO5)ccnc3O2)cc1OC` (stereo not given), the Potency is reported as inconclusive [cytotoxic, single point].
With `COc1ccc(S(=O)(=O)NC2CCCC2)cc1C(N)=O` the Potency was inconclusive [rising, full curve, poor fit].
In the case of `Cc1ccc(CSc2nc3ccncc3[nH]2)cc1`, the Potency is reported as inconclusive [cytotoxic, single point].
For `CC(=O)c1cc2c(cc1NS(=O)(=O)c1ccccc1)OCO2`, the Potency was inconclusive [rising, partial curve].
In the case of `CCc1c(C(=O)Nc2cc(C)ccc2OC)[nH]c(C)c1C(C)=O`, the Potency is reported as “inactive”.
For `COc1ccc(OCCOC(=O)CNS(=O)(=O)c2ccc(SC)c([N+](=O)[O-])c2)cc1`, the Potency was “inactive”.
With `Cc1ccc(C)c(N2CCN(C(=O)CCc3nc(-c4cccc(Cl)c4)no3)CC2)c1` the Potency was “inactive”.
In the case of `COc1cc(-c2cnc3c(NC=O)cc(-c4ccccc4)cn23)cc(OC)c1OC`, the Potency is reported as inconclusive [cytotoxic, full curve, poor fit].
For `O=C(C1CCN(C2CCN(C/C=C/c3ccccc3)CC2)CC1)N1CCOCC1`, the activity, negative = less viability was inconclusive: -30.7% [cytotoxic].
With `CSc1cccc(NC(=O)CCCOc2ccc(Cl)cc2C)c1` the Potency was inconclusive [cytotoxic, single point].
With `Cc1cc(-c2cc(C(=O)NCc3ccccc3)on2)nc(S(C)(=O)=O)n1` the Potency was inconclusive [cytotoxic, single point].
For `O=C(COC(=O)c1ccccc1Nc1ccccc1)c1ccccc1`, the Potency was “inactive”.
With `CN(C)CCNC(=S)Nc1ccc(Br)cc1` the Potency was “inactive”.
In the case of `NS(=O)(=O)c1ccc(CCNC(=O)c2coc3ccccc3c2=O)cc1`, the activity, negative = less viability is reported as inconclusive: -35.7% [cytotoxic].
In the case of `Cc1cc(N)n2nc(C)c(-c3ccc(Cl)cc3)c2n1`, the Potency is reported as inconclusive [cytotoxic, single point].
In the case of `c1ccc2c(OCCCN3CCCCCC3)cccc2c1`, the Potency is reported as inconclusive [cytotoxic, single point].
In the case of `CCN(CC)C(=O)[C@H]1CC(CC(=O)NCC23CC4CC(CC(C4)C2)C3)C(=O)N2CCc3c([nH]c4ccc(OC)cc34)[C@]12C` (stereo not given in full), the Potency is reported as “inactive”.
With `CN1/C(=C\C=C2/SC(=S)N(CC(=O)O)C2=O)C(C)(C)c2ccccc21` the Potency was inconclusive [cytotoxic, single point].
In the case of `COCCNC(=O)c1cc2cc(Cl)cc(Cl)c2oc1=O`, the Potency is reported as “inactive”.
For `Cc1nc(SCC(=O)Nc2c(C)n(C)n(-c3ccccc3)c2=O)n[nH]1`, the Potency was “inactive”.
In the case of `COc1ccccc1N1CCN(C(=O)c2cccc(S(=O)(=O)N3c4ccccc4CC3C)c2)CC1` (stereo not given), the Potency is reported as inconclusive [cytotoxic, single point].
With `COc1ccc(CC2(CO)CCN(C/C=C/c3ccccc3OC)CC2)cc1` the Potency was inconclusive [cytotoxic, partial curve].
In the case of `CCOC(=O)c1c(C)c(C(=O)NCCN2CCOCC2)c(C)n1CC`, the Potency is reported as inconclusive [rising, single point].
For `COc1ccc(N=Cc2ccc[nH]2)cc1`, the Potency was inconclusive [cytotoxic, partial curve].
For `CSCC[C@H](NC(=O)Nc1ccc(OC(F)(F)F)cc1)C(=O)O`, the Potency was inconclusive [rising, single point].
In the case of `Cc1ccc2nc(C(C)(C)C)c(Cc3ccsc3)n2c1`, the Potency is reported as inconclusive [cytotoxic, single point].
For `COc1ccc2c(c1)N(C(=O)CSc1n[nH]c(C)n1)C(C)(C)C=C2C`, the Potency was “inactive”.
With `Cc1ccccc1-n1c(Cc2cccs2)n[nH]c1=S` the Potency was inconclusive [cytotoxic, partial curve].
With `Cc1ccc(-c2csc(C(O)(c3ccccc3)C(F)(F)F)n2)cc1C` (stereo not given) the Potency was active: 25.9 µM.
With `Cc1cc2oc(C(=O)N(Cc3ccccc3)C3CCS(=O)(=O)C3)c(C)c2cc1C` (stereo not given) the Potency was “inactive”.
With `NC(=S)N=Nc1c(O)cc(O)c2[nH]c(=O)ccc12` the Potency was “inactive”.
With `O=C(NC1CCCC1)C(c1ccc(F)cc1)N(Cc1ccc(Cl)cc1)C(=O)CCl` (stereo not given) the Potency was “inactive”.
With `COc1ccc(C2C(C#N)=C3NC(=O)c4c(sc5c4CCCCC5)N3C3=C2C(=O)CC(C)(C)C3)cc1` (stereo not given) the Potency was inconclusive [cytotoxic, single point].
With `COCCNc1nc(Oc2cccc3ccccc23)c2sccc2n1` the Potency was inconclusive [cytotoxic, single point].
For `Cc1ccc(C)c(NC(=O)C2(C)CCN2C(C)C)c1` (stereo not given), the Potency was inconclusive [rising, single point].
For `O=C(Nc1ccc(N2CCCCCC2)cc1)c1ccccc1Cl`, the Potency was active: 11.6 µM.
With `Cc1csc(N(C)C(=O)CSc2nnc(COc3cccc4ccccc34)o2)n1` the Potency was active: 6.31 µM.
With `C[C@@H](OC(=O)c1[nH]cnc1C(=O)NCc1ccc(CNC(=O)OC(C)(C)C)cc1)c1ccccc1` the Potency was inconclusive [cytotoxic, single point].
For `CCOC(=O)c1ccc(NC(=O)COc2ccccc2OC)cc1`, the Potency was “inactive”.
For `CCCCCc1c(C)nc(Nc2nc(C)c3cc(OC)ccc3n2)[nH]c1=O`, the Potency was inconclusive [rising, partial curve, poor fit].
For `O=c1nc(-c2ccccc2)c2cc(Cl)ccc2[nH]1`, the Potency was “inactive”.
With `O=S(=O)(NCc1nc2ccccc2[nH]1)c1ccccc1` the Potency was inconclusive [rising, single point].
In the case of `CCCn1c(N)cc(=O)n(CCC)c1=O`, the Potency is reported as “inactive”.
For `O=[N+]([O-])c1cc(S(=O)(=O)C(F)(F)F)ccc1Sc1nc2ccccc2[nH]1`, the Potency was inconclusive [cytotoxic, single point].
With `O=C(c1ccco1)N(CCCN1CCOCC1)c1nc(-c2ccc(F)cc2)cs1` the Potency was inconclusive [cytotoxic, single point].
For `O=C(Nc1ccc(NC(=S)NC(=O)c2cccs2)cc1)c1ccco1`, the Potency was inconclusive [cytotoxic, single point].
For `COCCNC(=O)Cn1ccc2cc(S(=O)(=O)N3CCCCC3)ccc21`, the Potency was “inactive”.
In the case of `COc1ccc(NS(=O)(=O)c2ccc(C(=O)N3CCCCCC3)cc2)cc1`, the Potency is reported as active: 18.4 µM.
In the case of `O=C(CSc1nc2ccc(Cl)cc2[nH]1)NCCc1ccc(Cl)cc1`, the Potency is reported as inconclusive [cytotoxic, partial curve].
With `Cc1ccc(NS(=O)(=O)c2ccc(-c3cnc(C4CC4)o3)cc2)cc1` the Potency was inconclusive [cytotoxic, single point].
In the case of `O=C(O)CCNc1cc(N2CCN(C(=O)c3ccco3)CC2)c2noc3c2c1C(=O)c1ccccc1-3`, the Potency is reported as inconclusive [cytotoxic, partial curve].
For `Cc1ccc(S(=O)(=O)NCC(=O)OCc2csc(-c3ccccc3)n2)cc1`, the Potency was “inactive”.
In the case of `O=C(N/N=C\c1cccnc1)c1cc(-c2ccccc2)nc2c(Cl)cccc12`, the Potency is reported as inconclusive [cytotoxic, full curve].
For `CCOc1ccc(-n2c(SCc3nc(-c4cccs4)no3)nnc2-c2ccncc2)cc1`, the Potency was inconclusive [cytotoxic, single point].
With `O=C(COC(=O)/C=C/c1cccs1)Nc1cccc(S(=O)(=O)N2CCCC2)c1` the Potency was “inactive”.
With `Cc1ccccc1C(=O)N1CCc2c([nH]c3ccccc23)C1C(F)(F)F` (stereo not given) the Potency was inconclusive [cytotoxic, single point].
With `COc1ccc(CN2C(=O)COc3ccccc32)cc1` the Potency was “inactive”.
For `CCO[C@H]1OC(C(=O)NC2CC2)=C[C@@H](c2ccccc2)[C@@H]1CCCO`, the Potency was inconclusive [cytotoxic, single point].
With `O=C(CN1CCCC1)Nc1c2c(nc3ccccc13)N(Cc1ccccc1)CC2` the Potency was inconclusive [cytotoxic, single point].
For `CC(NC(=O)C1CCN(S(=O)(=O)c2cccs2)CC1)c1cccc(Cl)c1` (stereo not given), the Potency was “inactive”.
For `COC(=O)CNC(c1ccccc1Cl)c1cc(Br)ccc1NS(=O)(=O)c1ccc(C)cc1` (stereo not given), the Potency was “inactive”.
In the case of `CC(C(=O)NC1CCCCC1)N1CCN(S(=O)(=O)c2cccs2)CC1` (stereo not given), the Potency is reported as “inactive”.
